# Results as given in PubChem BioAssay AID463173 (ICCB-Longwood Screening Facility, Harvard Medical School, 2010).
# Out of some 52,000 compounds screened, about 4,300 (8.3%) were called active. Cut-off read from the data, not from the text of the source: active = survival mostly below about 52% (no sharp cut-off); inactive = mostly above about 56%. Some of the results follow.
# Tested on: DeltatarO mutant
# Experiment: S. aureus survival, RN4220 and DeltatarO strains – OD600, teichoic acid synthesis inhibitors, primary screen (AID 463173)
# Settings: S. aureus RN4220 wild type/DeltatarO growth, OD600, 18 h, stronger effect = lower value, screened at 18.75 µg/mL (by protocol)
row,Compound,survival
1,COc1ccccc1CNc1nc(-c2ccco2)nn1S(=O)(=O)c1ccc(Cl)cc1,inactive: 73%
2,Cc1ccc(S(=O)(=O)Nc2cc(Cl)c3oc4c(c3c2)C(=O)CC(C)(C)C4)cc1,inactive: 127%
3,COCCNC(=O)C(=O)Nc1c2c(nn1-c1ccccc1)CS(=O)(=O)C2,inactive: 92%
4,Cc1ccccc1NC(=O)CSc1nc2ccc(NC(=O)COc3ccccc3F)cc2s1,inactive: 68%
5,COc1cc(OC)c(NC(=O)Cn2c(=O)cc(C(F)(F)F)c3c(C)nn(C)c32)cc1Cl,inactive: 73%
6,CCc1ccccc1NC(=O)c1cnn2c(C(F)(F)F)cc(-c3ccc(OC)c(OC)c3)nc12,active: 46%
7,CCC(Cn1nnc2ccccc2c1=O)NC(=O)Nc1cccc(Cl)c1 (centres undefined),active: 39%
8,Cc1ccc(C(=O)N2CCN(c3ccccc3F)CC2)cc1NC(=O)c1nsc2ccccc12,inactive: 66%
9,COc1ccc(-c2[nH]ncc2C(=O)NCc2ccc(F)cc2)cc1,inactive: 77%
10,CCc1cccc(NC(=O)Cn2c(=O)n(CC3CCC(C(=O)NCCc4ccccc4)CC3)c(=O)c3ccccc32)c1 (centres undefined),inactive: 104%
11,O=C(Nc1ccccc1C(=O)O)c1cccc(S(=O)(=O)N2CCCC2)c1,inactive: 87%
12,O=C(NCc1ccc(F)cc1)C1CCN(C(=O)c2cnn(-c3ccccc3)c2-n2cccc2)CC1,inactive: 87%
13,CCCCN(CC)CCCNC(=O)c1cn(C)c2ccc(S(=O)(=O)N(C)C3CCCCC3)cc2c1=O,inactive: 96%
14,CCOc1cc(C(=O)NCc2ccc3c(c2)CCN3C(=O)CC)cc(OCC)c1OCC,inactive: 72%
15,Cc1ccccc1NC(=O)CN(C)S(=O)(=O)c1cccc2nsnc12,inactive: 70%
16,COc1ccc2oc(=O)c(C(=O)N(C)Cc3cccnc3)cc2c1,inactive: 85%
17,CCCN1C(=O)CN(C2CCCCCC2)C(=O)C1c1ccc(OCC)c(OC)c1 (centres undefined),inactive: 109%
18,COCCCNC(=O)c1c(NC(=O)c2cc(=O)c3cc(C)c(C)cc3o2)sc2c1CCCC2,inactive: 121%
19,COc1ccccc1CCNC(=O)c1cc2ccccn2n1,inactive: 129%
20,CCCCNc1cc(NC2CCCCC2)c2c3c(onc13)-c1ccccc1C2=O,inactive: 92%
21,COc1ccc(N2C(=O)C(CC(=O)Nc3ccc(F)cc3)N(CCC3=CCCCC3)C2=O)cc1 (centres undefined),inactive: 62%
22,COc1ccccc1CCNC(=O)Cc1c(C)c2c(cc(C)c3c(C)coc32)oc1=O,inactive: 96%
23,O=C(NC1CC(=O)N(c2cccc(F)c2)C1)C1CCCCC1 (centres undefined),inactive: 87%
24,CN(C(=O)Nc1cn(C)c(=O)c2ccccc12)c1ccccc1,active: -5%
